# According to the supplement of paper PMC3334620:
# Whole data set: some 33,000 sequences, median “E-score (-0.5 to 0.5)” near -0.035, cut for the highest 2% near 0.35. This is one part of the list.
# Biological target: T1, Pdr3 (UniProt P33200)
# T1 sequence: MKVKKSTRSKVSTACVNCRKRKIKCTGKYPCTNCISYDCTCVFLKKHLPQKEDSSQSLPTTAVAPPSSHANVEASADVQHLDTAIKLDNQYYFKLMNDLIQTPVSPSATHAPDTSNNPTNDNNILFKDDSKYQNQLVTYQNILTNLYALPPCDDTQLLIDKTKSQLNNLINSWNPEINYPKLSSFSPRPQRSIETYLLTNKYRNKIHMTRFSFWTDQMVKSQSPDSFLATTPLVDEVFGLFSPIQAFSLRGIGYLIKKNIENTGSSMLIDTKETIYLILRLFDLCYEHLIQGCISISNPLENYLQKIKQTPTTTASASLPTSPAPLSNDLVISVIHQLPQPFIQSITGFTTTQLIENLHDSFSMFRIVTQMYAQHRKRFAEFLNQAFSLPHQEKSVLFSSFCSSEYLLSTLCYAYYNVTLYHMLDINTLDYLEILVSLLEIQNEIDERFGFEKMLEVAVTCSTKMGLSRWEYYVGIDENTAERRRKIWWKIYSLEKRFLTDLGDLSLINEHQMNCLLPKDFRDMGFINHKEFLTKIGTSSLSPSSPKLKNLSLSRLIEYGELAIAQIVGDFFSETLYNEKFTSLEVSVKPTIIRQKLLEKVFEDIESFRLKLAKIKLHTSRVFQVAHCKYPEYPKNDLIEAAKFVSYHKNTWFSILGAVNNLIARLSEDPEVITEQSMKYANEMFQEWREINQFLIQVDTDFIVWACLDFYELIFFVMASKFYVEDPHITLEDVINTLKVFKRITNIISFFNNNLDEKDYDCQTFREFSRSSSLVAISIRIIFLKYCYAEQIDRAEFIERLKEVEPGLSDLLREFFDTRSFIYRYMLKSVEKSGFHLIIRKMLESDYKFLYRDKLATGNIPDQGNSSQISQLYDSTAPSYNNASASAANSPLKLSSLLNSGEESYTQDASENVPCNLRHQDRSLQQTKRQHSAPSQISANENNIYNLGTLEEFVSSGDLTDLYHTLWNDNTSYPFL
# Experiment: PBM E-score (8-mer binding enrichment) (E-score (-0.5 to 0.5)); higher = stronger / more preferred TF binding; most listed sequences are background and not binding sites
# Settings: protein concentration: 200 nM; construct: GST-full length
# How it was run: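 Universal all-10-mer Agilent arrays, double-stranded by primer extension on fresh or once-stripped slides, were probed with about 100-200 nM GST-tagged yeast transcription factors made by PURExpress. Fluorescent anti-GST detected bound protein, and masliner normalised the scans. E-scores from the Universal PBM Analysis Suite were given to each ungapped eight-base word pooled with its reverse complement.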
row,Sequence,PBM E-score
1,CCGTAGTA,0.0839
2,GGCTTCAA,-0.0558
3,ATACTGAT,0.0814
4,GCTGAACA,0.00972
5,CCTCGAAG,-0.0164
6,ATAAAGTC,-0.0657
7,AGGTTATA,-0.155
8,CCTGAAAG,-0.239
9,AGGCAACG,0.00606
10,GATTGGTA,0.104
11,CTTTGTGA,-0.0457
12,CCTTCTCA,-0.0704
13,AGCTTTGA,-0.0592
14,CGGAAGTC,0.421
15,ACCCGGCC,0.285
16,AAAGAGTA,-0.157
17,GCGCGCGC,0.388
18,GGCCCTAC,-0.0753
19,GACCCCTC,-0.154
20,GACCACAC,0.0164
21,GCCAGTGA,-0.163
22,CGCTGAAC,0.0298

row,Sequence,PBM E-score
1,AACGACGC,-0.129
2,ATCCCTTC,-0.0729
3,ACTCTCCA,-0.229
4,CGCCCAAA,-0.0537
5,CAACCCGC,0.267
6,CTTGAACC,-0.0942
7,AATATATT,0.295
8,TCACAGAA,-0.155
9,GACAGCCA,-0.12
10,CCATAAAA,0.0632
11,ACAATATG,0.147
12,ACATCACC,-0.00287
13,AACGCCTG,-0.206
14,CACTTACG,0.121
15,CGTGTAGC,-0.0915
16,CCGAACAG,0.0662
17,ACTCTAAC,0.0388
18,GATGAATC,0.0257
19,ACAAAATA,0.0651
20,AATTCTTG,-0.135
21,AGTCGCAC,-0.0967
22,AGTGAGTG,-0.158

row,Sequence,PBM E-score
1,CGATTCCC,0.181
2,AGCCGCCC,0.122
3,CTATACTC,0.0145
4,CTCGCGGC,0.171
5,ACTAAGAA,0.106
6,AGGAACAA,0.0344
7,TACATTGA,-0.0689
8,TATGAGGA,-0.232
9,AGTTCGGC,-8e-05
10,ACGTTACG,-0.211
11,TATCCCAA,-0.0877
12,ACGACACG,0.0898
13,GTAACCCA,0.0499
14,AGACTTAG,-0.31
15,CATATCAC,-0.132
16,ATTGTAGC,-0.0697
17,AGGTATCA,-0.27
18,ATCTATCC,0.204
19,CCCACTCA,-0.108
20,CCTAGTTA,-0.132
21,CATCGTAG,-0.323
22,ACGCTTAC,-0.143

row,Sequence,PBM E-score
1,ACGAGTCC,0.00565
2,GGCCATAC,0.108
3,GGACCAAA,0.187
4,CACTAGCG,-0.0368
5,CCAGGGTA,-0.0798
6,GCGGGCTA,0.0437
7,GATTACTA,0.0418
8,AAACCCCG,0.264
9,ACGAGCAT,-0.187
10,CCGTACTA,0.293
11,CAAGGTCC,-0.0578
12,AGCTTTCG,-0.0763
13,GCACAAGA,-0.00863
14,TCCCGAGA,0.339
15,GTCACCAC,-0.103
16,ACCAACGA,-0.117
17,CTTTGGAC,0.0264
18,CAAGCCTA,-0.238
19,ATTCTCGG,0.243
20,AAATGAGG,-0.12
